Molecular target: N555-hRFC, N-terminal truncation variant of the human replication factor C clamp loader complex (human) (UniProt P35251)

K (d, app) from RFC ATPase activity as a function of PCNA concentration (0 to 600 nM PCNA)	Substance
200 nM	PCNA-C148S (a stretch of the chain, sequence left out) (natural protein)
120 nM	PCNA-S228I (a stretch of the chain, sequence left out) (natural protein)

Source: article PMC10165274
